# Results published in the supplement of paper PMC8728848.
# The other results are listed elsewhere or left out.
# Columns and labels:
# Assay in all cases: glycan array binding signal (z-score within array); higher = stronger binding
# Details in all cases: glycan notation: IUPAC condensed, linker removed
# [1] = biological target: Neu5Ac(a2-3)Gal(b1-4)GlcNAc(b1-3)Gal(b1-4)GlcNAc(b1-3)Gal(b1-4)GlcNAc
# Method in brief: (§1)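 The binding signal is a Z-score computed within each array. Data were drawn from 3228 arrays in the Consortium for Functional Glycomics database, restricted to those with a known protein sequence. Scores were averaged over arrays of the same protein sequence at different concentrations or buffers, and over linkers, and negative values can be taken as non-binding.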
# [2] = biological target: Neu5Ac(a2-3)Gal(b1-4)GlcNAc(b1-3)Gal(b1-4)GlcNAc(b1-3)Gal(b1-4)GlcNAc(b1-2)Man(a1-3)[Neu5Ac(a2-3)Gal(b1-4)GlcNAc(b1-3)Gal(b1-4)GlcNAc(b1-3)Gal(b1-4)GlcNAc(b1-2)Man(a1-6)]GalNAc
# Method in brief: as §1
# [3] = biological target: Neu5Ac(a2-3)Gal(b1-4)GlcNAc(b1-3)Gal(b1-4)GlcNAc(b1-3)GalNAc
# Method in brief: as §1
# [4] = biological target: Neu5Ac(a2-3)Gal(b1-4)GlcNAc(b1-3)Gal(b1-4)GlcNAc(b1-3)[Neu5Ac(a2-3)Gal(b1-4)GlcNAc(b1-3)Gal(b1-4)GlcNAc(b1-6)]GalNAc
# Method in brief: as §1
# [5] = biological target: Neu5Ac(a2-3)Gal(b1-4)GlcNAc(b1-3)Gal(b1-4)GlcNAc(b1-6)[Gal(b1-3)]GalNAc
# Method in brief: as §1
# [6] = biological target: Neu5Ac(a2-3)Gal(b1-4)GlcNAc(b1-3)Gal(b1-4)[Fuc(a1-3)]GlcNAc
# Method in brief: as §1
# [7] = biological target: Neu5Ac(a2-3)Gal(b1-4)GlcNAc(b1-3)GalNAc
# Method in brief: as §1
# [8] = biological target: Neu5Ac(a2-3)Gal(b1-4)GlcNAc(b1-3)[Neu5Ac(a2-3)Gal(b1-4)GlcNAc(b1-6)]GalNAc
# Method in brief: as §1
# [9] = biological target: Neu5Ac(a2-3)Gal(b1-4)GlcNAc(b1-6)GalNAc
# Method in brief: as §1
# [10] = biological target: Neu5Ac(a2-3)Gal(b1-4)GlcNAc(b1-6)[Gal(b1-3)]GalNAc
# Method in brief: as §1
# [11] = biological target: Neu5Ac(a2-3)Gal(b1-4)GlcNAc(b1-6)[Neu5Ac(a2-3)Gal(b1-3)]GalNAc
# Method in brief: as §1
# [12] = biological target: Neu5Ac(a2-3)Gal(b1-4)GlcNAc6S
# Method in brief: as §1
# [13] = biological target: Neu5Ac(a2-3)Gal(b1-4)[Fuc(a1-3)]GlcNAc
# Method in brief: as §1
# [14] = biological target: Neu5Ac(a2-3)Gal(b1-4)[Fuc(a1-3)]GlcNAc(b1-2)Man
# Method in brief: as §1
# [15] = biological target: Neu5Ac(a2-3)Gal(b1-4)[Fuc(a1-3)]GlcNAc(b1-3)Gal
# Method in brief: as §1
# [16] = biological target: Neu5Ac(a2-3)Gal(b1-4)[Fuc(a1-3)]GlcNAc(b1-3)Gal(b1-4)GlcNAc
# Method in brief: as §1
# [17] = biological target: Neu5Ac(a2-3)Gal(b1-4)[Fuc(a1-3)]GlcNAc(b1-3)Gal(b1-4)[Fuc(a1-3)]GlcNAc(b1-3)Gal(b1-4)[Fuc(a1-3)]GlcNAc
# Method in brief: as §1
# [18] = biological target: Neu5Ac(a2-3)Gal(b1-4)[Fuc(a1-3)]GlcNAc(b1-3)GalNAc
# Method in brief: as §1
# [19] = biological target: Neu5Ac(a2-3)Gal(b1-4)[Fuc(a1-3)]GlcNAc(b1-6)[Gal(b1-3)]GalNAc
# Method in brief: as §1
# [20] = biological target: Neu5Ac(a2-3)Gal(b1-4)[Fuc(a1-3)]GlcNAc(b1-6)[Neu5Ac(a2-3)Gal(b1-3)]GalNAc
# Method in brief: as §1
# [21] = biological target: Neu5Ac(a2-3)Gal(b1-4)[Fuc(a1-3)]GlcNAc6S
# Method in brief: as §1
# [22] = biological target: Neu5Ac(a2-3)Gal6S(b1-4)GlcNAc
# Method in brief: as §1
# [23] = biological target: Neu5Ac(a2-3)Gal6S(b1-4)[Fuc(a1-3)]GlcNAc
# Method in brief: as §1
# Neu5Ac(a2-3)GalNAc = biological target: Neu5Ac(a2-3)GalNAc
# Method in brief: as §1
# [24] = biological target: Neu5Ac(a2-3)GalNAc(b1-4)GlcNAc
# Method in brief: as §1
# [25] = biological target: Neu5Ac(a2-3)[GalNAc(b1-4)]Gal(b1-4)Glc
# Method in brief: as §1
# [26] = biological target: Neu5Ac(a2-3)[GalNAc(b1-4)]Gal(b1-4)GlcNAc
# Method in brief: as §1
# [27] = biological target: Neu5Ac(a2-3)[GalNAc(b1-4)]Gal(b1-4)GlcNAc(b1-3)GalNAc
# Method in brief: as §1
# [28] = biological target: Neu5Ac(a2-3)[Neu5Ac(a2-6)]GalNAc
# Method in brief: as §1
# Neu5Ac(a2-6)Gal = biological target: Neu5Ac(a2-6)Gal
# Method in brief: as §1
# [29] = biological target: Neu5Ac(a2-6)Gal(b1-3)GlcNAc(b1-3)[Gal(b1-4)GlcNAc(b1-6)]Gal(b1-4)Glc
# Method in brief: as §1
# Neu5Ac(a2-6)Gal(b1-4)Glc = biological target: Neu5Ac(a2-6)Gal(b1-4)Glc
# Method in brief: as §1
# [30] = biological target: Neu5Ac(a2-6)Gal(b1-4)GlcNAc
# Method in brief: as §1
# [31] = biological target: Neu5Ac(a2-6)Gal(b1-4)GlcNAc(b1-2)Man
# Method in brief: as §1
# [32] = biological target: Neu5Ac(a2-6)Gal(b1-4)GlcNAc(b1-2)Man(a1-3)Man(b1-4)GlcNAc(b1-4)GlcNAc
# Method in brief: as §1
# [33] = biological target: Neu5Ac(a2-6)Gal(b1-4)GlcNAc(b1-2)Man(a1-3)[Gal(b1-4)GlcNAc(b1-2)Man(a1-6)]Man(b1-4)GlcNAc(b1-4)GlcNAc
# Method in brief: as §1
# [34] = biological target: Neu5Ac(a2-6)Gal(b1-4)GlcNAc(b1-2)Man(a1-3)[GlcNAc(b1-2)Man(a1-6)]Man(b1-4)GlcNAc(b1-4)GlcNAc
# Method in brief: as §1
# [35] = biological target: Neu5Ac(a2-6)Gal(b1-4)GlcNAc(b1-2)Man(a1-3)[GlcNAc(b1-4)][Neu5Ac(a2-6)Gal(b1-4)GlcNAc(b1-2)Man(a1-6)]Man(b1-4)GlcNAc(b1-4)GlcNAc
# Method in brief: as §1
binder,measurement,setting,value
GSL-I-B4 (Griffonia simplicifolia) (protein) NFWSDVEDSIIFQGDANTTAGTLQLCKTNQYGTPLQWSAGRALYSDPVQLWDNKTESVASFYTEFTFFLKITGNGPADGLAFFLAPPDSDVKDAGEYLGLFNKSTATQPSKNQVVAVEFDTWTNPNFPEPSYRHIGINVNSIVSVATKRWEDSDIFSGKIATARISYDGSAEILTVVLSYPDGSDYILSHSVDMRQNLPESVRVGISASTGNNQFLTVYILSWRFSSNLQSTSVKAAMEPEITRTVV,glycan array binding signal (z-score),[1],-0.2
same,glycan array binding signal (z-score),[2],0.146
same,glycan array binding signal (z-score),[3],-0.238
same,glycan array binding signal (z-score),[4],-0.167
same,glycan array binding signal (z-score),[5],-0.059
same,glycan array binding signal (z-score),[6],-0.199
same,glycan array binding signal (z-score),[7],-0.228
same,glycan array binding signal (z-score),[8],-0.164
same,glycan array binding signal (z-score),[9],-0.161
same,glycan array binding signal (z-score),[10],-0.23
same,glycan array binding signal (z-score),[11],-0.212
same,glycan array binding signal (z-score),[12],-0.193
same,glycan array binding signal (z-score),[13],-0.175
same,glycan array binding signal (z-score),[14],-0.187
same,glycan array binding signal (z-score),[15],-0.207
same,glycan array binding signal (z-score),[16],-0.174
same,glycan array binding signal (z-score),[17],-0.15
same,glycan array binding signal (z-score),[18],-0.152
same,glycan array binding signal (z-score),[19],-0.059
same,glycan array binding signal (z-score),[20],-0.109
same,glycan array binding signal (z-score),[21],-0.176
same,glycan array binding signal (z-score),[22],-0.143
same,glycan array binding signal (z-score),[23],-0.238
same,glycan array binding signal (z-score),Neu5Ac(a2-3)GalNAc,-0.158
same,glycan array binding signal (z-score),[24],-0.157
same,glycan array binding signal (z-score),[25],-0.194
same,glycan array binding signal (z-score),[26],-0.141
same,glycan array binding signal (z-score),[27],-0.03
same,glycan array binding signal (z-score),[28],-0.201
same,glycan array binding signal (z-score),Neu5Ac(a2-6)Gal,-0.175
same,glycan array binding signal (z-score),[29],-0.191
same,glycan array binding signal (z-score),Neu5Ac(a2-6)Gal(b1-4)Glc,-0.152
same,glycan array binding signal (z-score),[30],-0.201
same,glycan array binding signal (z-score),[31],-0.174
same,glycan array binding signal (z-score),[32],-0.125
same,glycan array binding signal (z-score),[33],-0.206
same,glycan array binding signal (z-score),[34],-0.139
same,glycan array binding signal (z-score),[35],-0.165
